# Measurements as given in the supplement of paper PMC8728848.
# This is one part of the list.
# B1: Epa1-NP-mutant-Y228W (Candida glabrata), Q6VBJ0 (protein)
# chain: MILNPALFLNKCVCIYTTLILLLLTNGGYATSSNDISLASKDPTTFPLGCSPDITTPKKGLSMELYSYDFRKKGSYPCWDAAYLDPNYPRTGYKSHRLLAKVDGVTGNINFYYHATKGCTPQLGHLPASYNYPKPLTMTNFTMLLYGYFRPKVTGFHTFTISADDLLFVNFGAGNAFDCCRRDSSADHFGNYQAYAIWGSKTAKDELTVHLDAGVYYPIRLFYNNREWDGALSFTFKTESNENTVSDFSEYFFSLDDTEEGCPGLISYDSSCASVKTSKIIGIDYHTETPNENLVPITKTIYHLGIPCTGTTTTPLCGSGFYDPLANKCVTINTSSTSSVTKTTSHTTSKEVSFHSSISSQKTLIPKSIPSPYGPIKSQSIPTEMETSSEISSSEYAFSDVISTPSHSPYTKKHSSLNSSSYTSTVIHSLTSYSISQGIFSTSLSEQNITSKSSTDKFSTATSMSNNITQSSIIISQFSTNNENYTTTSMHTSSDKISTETLNNSISTTTSILFSNSSTILKNNTTIISSDKDTHYHPVNPTIVCSTNKTEIICASITQPSISNSNNHWSSSVLKFNSTTVRSTLPSSAGSNETSINVPFSSSTESNTSTSSTSTSNSKMVRSTLPSSAGSNETSISVPFSSSTESNTSTSSTSTSNSKMVRSTLPSSAGSNETSINVPFSSSTESNTSTSSTSTSNSKTVRSTPFSSAGIIMTSLSQRNNKSASSYASSNSKCYNTADSCRKVHSTPSYLLTSSYTSEGVDYDCSLVSTKLKINDTNCVNNKHTTKSCLKTSVTTTIPTLEIKTARKSSSNTIGLHSYPTSSPNKSISSAPIIGYISSFKTIKTASPSYQTSDLTTITTITSLNNPGSTAVENTHESNDKSRKTSSNDISSKHSVIKETKDAVESSNKSHQTNTLKCSSIIIASSSHNSYESLGGTTLTLTLSKVYSPQNNDTLPFLEISEVNPSRTVLPESSKMMQYLTSTEERNKTARNTIATNIVSISTFHFEGEGNAIRMGYTQLLLMLIGIIVMNIGT
# Assays:
# Assay in all cases: glycan array binding signal (z-score within array); higher = stronger binding
# Conditions in all cases: glycan notation: IUPAC condensed, linker removed; mutation: Y228W
# [1] = biological target: Gal(b1-4)GalNAc(b1-3)[Fuc(a1-2)]Gal(b1-4)GlcNAc
# Summary of the method: (§1)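 Columns mapping to the same glycan were averaged after glycan names were converted to IUPAC-condensed notation. The data come from 3228 arrays in the Consortium for Functional Glycomics database, limited to those with an available protein sequence. Binding is reported as a within-array Z-score averaged across arrays of one protein sequence and across linkers.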
# Gal(b1-4)Glc = biological target: Gal(b1-4)Glc
# Summary of the method: as §1
# Gal(b1-4)Glc6S = biological target: Gal(b1-4)Glc6S
# Summary of the method: as §1
# Gal(b1-4)GlcNAc = biological target: Gal(b1-4)GlcNAc
# Summary of the method: as §1
# [2] = biological target: Gal(b1-4)GlcNAc(a1-6)Gal(b1-4)GlcNAc
# Summary of the method: as §1
# Gal(b1-4)GlcNAc(b1-2)Man = biological target: Gal(b1-4)GlcNAc(b1-2)Man
# Summary of the method: as §1
# [3] = biological target: Gal(b1-4)GlcNAc(b1-2)Man(a1-3)Man(b1-4)GlcNAc(b1-4)GlcNAc
# Summary of the method: as §1
# [4] = biological target: Gal(b1-4)GlcNAc(b1-2)Man(a1-3)[Gal(b1-4)GlcNAc(b1-2)Man(a1-6)]Man(b1-4)GlcNAc(b1-4)GlcNAc
# Summary of the method: as §1
# [5] = biological target: Gal(b1-4)GlcNAc(b1-2)Man(a1-3)[Gal(b1-4)GlcNAc(b1-2)Man(a1-6)]Man(b1-4)GlcNAc(b1-4)[Fuc(a1-6)]GlcNAc
# Summary of the method: as §1
# [6] = biological target: Gal(b1-4)GlcNAc(b1-2)Man(a1-3)[Gal(b1-4)GlcNAc(b1-2)Man(a1-6)][Gal(b1-4)GlcNAc(b1-4)]Man(b1-4)GlcNAc(b1-4)[Fuc(a1-6)]GlcNAc
# Summary of the method: as §1
# [7] = biological target: Gal(b1-4)GlcNAc(b1-2)Man(a1-3)[Gal(b1-4)GlcNAc(b1-2)Man(a1-6)][GlcNAc(b1-4)]Man(b1-4)GlcNAc(b1-4)[Fuc(a1-6)]GlcNAc
# Summary of the method: as §1
# [8] = biological target: Gal(b1-4)GlcNAc(b1-2)Man(a1-3)[GlcNAc(b1-2)Man(a1-6)]Man(b1-4)GlcNAc(b1-4)GlcNAc
# Summary of the method: as §1
# [9] = biological target: Gal(b1-4)GlcNAc(b1-2)Man(a1-3)[GlcNAc(b1-4)][Gal(b1-4)GlcNAc(b1-2)Man(a1-6)]Man(b1-4)GlcNAc(b1-4)GlcNAc
# Summary of the method: as §1
# [10] = biological target: Gal(b1-4)GlcNAc(b1-2)Man(a1-3)[Man(a1-6)]Man(b1-4)GlcNAc(b1-4)GlcNAc
# Summary of the method: as §1
# [11] = biological target: Gal(b1-4)GlcNAc(b1-2)Man(a1-6)Man(b1-4)GlcNAc(b1-4)GlcNAc
# Summary of the method: as §1
# [12] = biological target: Gal(b1-4)GlcNAc(b1-2)Man(a1-6)[GlcNAc(b1-2)Man(a1-3)]Man(b1-4)GlcNAc(b1-4)GlcNAc
# Summary of the method: as §1
# [13] = biological target: Gal(b1-4)GlcNAc(b1-2)Man(a1-6)[Man(a1-3)]Man(b1-4)GlcNAc(b1-4)GlcNAc
# Summary of the method: as §1
# [14] = biological target: Gal(b1-4)GlcNAc(b1-2)[Gal(b1-4)GlcNAc(b1-4)]Man(a1-3)[Gal(b1-4)GlcNAc(b1-2)Man(a1-6)]Man(b1-4)GlcNAc(b1-4)GlcNAc
# Summary of the method: as §1
# [15] = biological target: Gal(b1-4)GlcNAc(b1-2)[Gal(b1-4)GlcNAc(b1-4)]Man(a1-3)[Gal(b1-4)GlcNAc(b1-2)[Gal(b1-4)GlcNAc(b1-6)]Man(a1-6)]Man(b1-4)GlcNAc(b1-4)GlcNAc
# Summary of the method: as §1
# [16] = biological target: Gal(b1-4)GlcNAc(b1-2)[Gal(b1-4)GlcNAc(b1-4)]Man(a1-3)[GlcNAc(b1-4)][Gal(b1-4)GlcNAc(b1-2)Man(a1-6)]Man(b1-4)GlcNAc(b1-4)GlcNAc
# Summary of the method: as §1
# [17] = biological target: Gal(b1-4)GlcNAc(b1-2)[Gal(b1-4)GlcNAc(b1-4)]Man(a1-3)[GlcNAc(b1-4)][Gal(b1-4)GlcNAc(b1-2)[Gal(b1-4)GlcNAc(b1-6)]Man(a1-6)]Man(b1-4)GlcNAc(b1-4)GlcNAc
# Summary of the method: as §1
# [18] = biological target: Gal(b1-4)GlcNAc(b1-2)[Gal(b1-4)GlcNAc(b1-6)]Man(a1-6)[Gal(b1-4)GlcNAc(b1-2)Man(a1-3)]Man(b1-4)GlcNAc(b1-4)GlcNAc
# Summary of the method: as §1
# [19] = biological target: Gal(b1-4)GlcNAc(b1-2)[Gal(b1-4)GlcNAc(b1-6)]Man(a1-6)[Gal(b1-4)GlcNAc(b1-2)Man(a1-3)]Man(b1-4)GlcNAc(b1-4)[Fuc(a1-6)]GlcNAc
# Summary of the method: as §1
# [20] = biological target: Gal(b1-4)GlcNAc(b1-2)[Gal(b1-4)GlcNAc(b1-6)]Man(a1-6)[GlcNAc(b1-4)][Gal(b1-4)GlcNAc(b1-2)Man(a1-3)]Man(b1-4)GlcNAc(b1-4)GlcNAc
# Summary of the method: as §1
# [21] = biological target: Gal(b1-4)GlcNAc(b1-2)[Gal(b1-4)GlcNAc(b1-6)]Man(a1-6)[GlcNAc(b1-4)][Gal(b1-4)GlcNAc(b1-2)[Gal(b1-4)GlcNAc(b1-4)]Man(a1-3)]Man(b1-4)GlcNAc(b1-4)[Fuc(a1-6)]GlcNAc
# Summary of the method: as §1
# [22] = biological target: Gal(b1-4)GlcNAc(b1-3)Gal(b1-3)GalNAc
# Summary of the method: as §1
# [23] = biological target: Gal(b1-4)GlcNAc(b1-3)Gal(b1-3)GlcNAc
# Summary of the method: as §1
# [24] = biological target: Gal(b1-4)GlcNAc(b1-3)Gal(b1-4)Glc
# Summary of the method: as §1
# [25] = biological target: Gal(b1-4)GlcNAc(b1-3)Gal(b1-4)GlcNAc
# Summary of the method: as §1
# [26] = biological target: Gal(b1-4)GlcNAc(b1-3)Gal(b1-4)GlcNAc(b1-2)Man(a1-3)[Gal(b1-4)GlcNAc(b1-3)Gal(b1-4)GlcNAc(b1-2)Man(a1-6)]Man(b1-4)GlcNAc(b1-4)GlcNAc
# Summary of the method: as §1
binder,measurement,setting,value
B1,glycan array binding signal (z-score),[1],-0.075
same,glycan array binding signal (z-score),Gal(b1-4)Glc,-0.312
same,glycan array binding signal (z-score),Gal(b1-4)Glc6S,0.17
same,glycan array binding signal (z-score),Gal(b1-4)GlcNAc,0.01
same,glycan array binding signal (z-score),[2],3.19
same,glycan array binding signal (z-score),Gal(b1-4)GlcNAc(b1-2)Man,-0.121
same,glycan array binding signal (z-score),[3],-0.231
same,glycan array binding signal (z-score),[4],0.353
same,glycan array binding signal (z-score),[5],0.093
same,glycan array binding signal (z-score),[6],-0.314
same,glycan array binding signal (z-score),[7],-0.241
same,glycan array binding signal (z-score),[8],-0.222
same,glycan array binding signal (z-score),[9],-0.226
same,glycan array binding signal (z-score),[10],-0.183
same,glycan array binding signal (z-score),[11],0.003
same,glycan array binding signal (z-score),[12],-0.486
same,glycan array binding signal (z-score),[13],-0.17
same,glycan array binding signal (z-score),[14],0.858
same,glycan array binding signal (z-score),[15],0.937
same,glycan array binding signal (z-score),[16],-0.126
same,glycan array binding signal (z-score),[17],0.196
same,glycan array binding signal (z-score),[18],0.422
same,glycan array binding signal (z-score),[19],0.722
same,glycan array binding signal (z-score),[20],-0.205
same,glycan array binding signal (z-score),[21],0.2
same,glycan array binding signal (z-score),[22],-0.229
same,glycan array binding signal (z-score),[23],-0.281
same,glycan array binding signal (z-score),[24],-0.195
same,glycan array binding signal (z-score),[25],-0.236
same,glycan array binding signal (z-score),[26],0.392
